Consider 120 sequences from the supplement of paper PMC10126150.

Sequences with one replicate were seen in a single cluster, so their values are uncertain.

The subject of this data set is ATP. Briefly: switch fluorescence ratio, 500 uM ATP over buffer (Cy3 cluster intensity, sum of 5 cycles each) (fold (ratio)); higher = stronger signal-on switching upon ATP binding; sequences stand for … in TCGTCGGCAGCGTCAGATGTGTATAAGAGACAGTTTTTTTTTTTTTTTTTTTTTTTTT…TC. Conditions: aptamer strand: ATP DNA aptamer (quencher-CACCTGGGGGAGTATTGCGGAGGAAGG + anchor), 100 nM annealed; ATP concentration: 500 uM; one replicate. In outline: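 Cy3-labelled switching-strand clusters on a modified Illumina MiSeq flow-cell were annealed to 100 nM quencher-labelled ATP aptamer and imaged first in selection buffer, then after 15 min with 500 uM ATP at 22 °C. NaOH stripping and re-annealing separated each of five buffer/ATP cycles, and clusters outside 100-1000 RFU were excluded. The fluorescence ratio sums target-cycle Cy3 intensity over buffer-cycle Cy3 intensity per cluster and averages it per switch-domain sequence.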
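Also: ATP exposure 15 min at 22 °C before imaging.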

In the case of TGGGGACGA, the switch fluorescence ratio worked out at 0.986.

As to TTTACCCTCG, the switch fluorescence ratio turned out to be 1.09.

In the case of TTGCTCGAGG, the switch fluorescence ratio was 1.

For TCCGTACTGA, the switch fluorescence ratio is 1.12.

With ACTTTACATG, the switch fluorescence ratio came to 1.48.

For the sequence TGTGGGAATG, the switch fluorescence ratio stood at 0.937.

Take CGCCGTGGGA: the switch fluorescence ratio was found to be 1.02.

As to TAGAATGAAC, the switch fluorescence ratio came to 0.977.

Turning to CGACTGACTA, the switch fluorescence ratio amounted to 1.14.

Take CCAGTTTTTG: the switch fluorescence ratio is 0.978.

With TGGGTCGGTT, the switch fluorescence ratio amounted to 0.978.

On to TGACCTGCAT, for which the switch fluorescence ratio came to 1.18.

Regarding ATCGGATACG, the switch fluorescence ratio came out at 0.995.

For AGTCACGCGA, the switch fluorescence ratio was 1.24.

With GGGACACGCA, the switch fluorescence ratio was determined as 1.11.

As for GCTCACGTTA, the switch fluorescence ratio was determined as 1.31.

For the sequence AGGCTCGGTA, the switch fluorescence ratio amounted to 0.958.

On to TCCAAAGTGA, for which the switch fluorescence ratio amounted to 1.26.

For the sequence ATTGAGGCAT, the switch fluorescence ratio turned out to be 1.03.

On to GGGACATGTC, for which the switch fluorescence ratio worked out at 1.01.

Take AGTAGTCCGG: the switch fluorescence ratio was determined as 0.957.

With TAGATACAGT, the switch fluorescence ratio is 1.06.

Consider AATTTATCAC, for which the switch fluorescence ratio is 0.992.

GCTATCGGTC: the switch fluorescence ratio is 1.01.

As for GTGGGGATCG, the switch fluorescence ratio came out at 0.992.

TTTCTATCAC: the switch fluorescence ratio was 1.05.

Turning to AAACATGCCG, the switch fluorescence ratio is 1.06.

Take TTGGACACTT: the switch fluorescence ratio was 1.02.

On to GAGGGCTAAG, for which the switch fluorescence ratio amounted to 0.968.

In the case of GCTACCCCGG, the switch fluorescence ratio came out at 4.96.

Consider GCGATAAGTG, for which the switch fluorescence ratio amounted to 1.06.

Consider TCCTATCG, for which the switch fluorescence ratio came out at 0.997.

Take CTACGTTGAG: the switch fluorescence ratio turned out to be 1.02.

Take AGGGTTTGCA: the switch fluorescence ratio is 0.983.

In the case of TGGTCCCTCA, the switch fluorescence ratio worked out at 0.999.

With CGCACTTAGA, the switch fluorescence ratio worked out at 1.13.

Take GCTTTAGATA: the switch fluorescence ratio is 0.967.

As for TTTGCCTCGC, the switch fluorescence ratio came out at 0.972.

As for TATCGCGTCG, the switch fluorescence ratio is 0.959.

Consider CAACAACCT, for which the switch fluorescence ratio amounted to 1.31.

ATTTACACTG: the switch fluorescence ratio came out at 0.962.

In the case of GAAGAGCAGG, the switch fluorescence ratio came out at 1.

Consider CTTCCATTAT, for which the switch fluorescence ratio turned out to be 1.07.

Take CAAGACGTCG: the switch fluorescence ratio is 0.948.

GGATACGTCC: the switch fluorescence ratio was determined as 1.03.

As to CTACACTGCG, the switch fluorescence ratio turned out to be 1.07.

As for AGCGATCCCC, the switch fluorescence ratio amounted to 2.02.

As for TTAAGGAAAT, the switch fluorescence ratio came out at 0.988.

On to ACTGTGGCAA, for which the switch fluorescence ratio stood at 0.931.

As for CGTATGAGGT, the switch fluorescence ratio turned out to be 1.

On to GTGGTGGTT, for which the switch fluorescence ratio turned out to be 0.963.

Consider ATTGTCAATA, for which the switch fluorescence ratio was determined as 0.996.

Regarding CGTGCAGACT, the switch fluorescence ratio amounted to 1.

As to AAAACGAAAC, the switch fluorescence ratio was 0.976.

ATGCTCAGCA: the switch fluorescence ratio was 1.04.

For the sequence AATACGCGTA, the switch fluorescence ratio amounted to 0.984.

Consider CGCTTGACGC, for which the switch fluorescence ratio was found to be 1.01.

With TTCTAAGCAA, the switch fluorescence ratio is 2.94.

In the case of GCGAGGATCT, the switch fluorescence ratio is 1.02.

GAGTACTTAT: the switch fluorescence ratio was 1.01.

Consider CCATAACGC, for which the switch fluorescence ratio was 1.14.

Consider CCAGGGCAAG, for which the switch fluorescence ratio came out at 1.39.

Turning to TTTTAGCTAC, the switch fluorescence ratio is 2.07.

Consider AGCGTTGGAG, for which the switch fluorescence ratio amounted to 1.03.

On to TCCGCCTGGG, for which the switch fluorescence ratio is 1.24.

TCAGCGCTTA: the switch fluorescence ratio worked out at 1.

Consider TTATAGGGGG, for which the switch fluorescence ratio was determined as 1.04.

AGCTGGGCAG: the switch fluorescence ratio was 1.08.

Consider CATAGATGAA, for which the switch fluorescence ratio was 0.974.

As for ACAGTGTGAA, the switch fluorescence ratio came out at 1.02.

In the case of GGAGGAAGCC, the switch fluorescence ratio was 0.956.

Take CATCTAGCCG: the switch fluorescence ratio turned out to be 0.964.

Regarding TGAAGTCATG, the switch fluorescence ratio worked out at 0.992.

As for AGCGGTCAGG, the switch fluorescence ratio was 0.994.

Turning to CTTTGGTGCG, the switch fluorescence ratio turned out to be 0.951.

As for TGCCCCGTCC, the switch fluorescence ratio worked out at 1.05.

As to GTTTATGATT, the switch fluorescence ratio came to 1.02.

In the case of AGTGTACTTA, the switch fluorescence ratio stood at 1.04.

For the sequence AGTGTTTGAG, the switch fluorescence ratio stood at 0.977.

Consider ATGTTAAACA, for which the switch fluorescence ratio worked out at 1.03.

Consider CAGTCTATTA, for which the switch fluorescence ratio amounted to 1.05.

Regarding GAACGAGCAT, the switch fluorescence ratio amounted to 1.2.

As to AGTCGTTGTG, the switch fluorescence ratio stood at 1.

As for TCAACGATGA, the switch fluorescence ratio was 1.01.

Turning to GACATATTTT, the switch fluorescence ratio was 1.05.

Take CAGGTCCAAA: the switch fluorescence ratio came to 1.07.

For GGTGCGGACG, the switch fluorescence ratio was 1.

GCTGTAGGG: the switch fluorescence ratio turned out to be 1.

On to TTGGAGCCAA, for which the switch fluorescence ratio was found to be 2.77.

Turning to CCGCTCGTTT, the switch fluorescence ratio was 1.48.

As to AGTACGCGGA, the switch fluorescence ratio was 0.97.

For the sequence TATCAATACG, the switch fluorescence ratio is 1.26.

ATGCGATGGT: the switch fluorescence ratio is 1.01.

For the sequence TAAGCTTTCA, the switch fluorescence ratio amounted to 1.01.

CTCGATTTTT: the switch fluorescence ratio came to 0.982.

For the sequence TGTAGCGTAA, the switch fluorescence ratio was found to be 1.13.

As for CACGAGAGAG, the switch fluorescence ratio was determined as 1.01.

For the sequence CGGCTAGACC, the switch fluorescence ratio amounted to 1.08.

As to GCAGAACTAA, the switch fluorescence ratio is 0.972.

As to CGTACTGGGG, the switch fluorescence ratio was found to be 1.06.

For the sequence TCATGACACG, the switch fluorescence ratio amounted to 1.

For the sequence CATGCTGCG, the switch fluorescence ratio was found to be 1.09.

Consider TTATCATAGC, for which the switch fluorescence ratio turned out to be 0.99.

Regarding CCATCACTTG, the switch fluorescence ratio was 0.986.

For the sequence GGCAGATGGG, the switch fluorescence ratio was 1.02.

Take TACTGAATCC: the switch fluorescence ratio is 1.07.

TATTTAAATT: the switch fluorescence ratio is 0.968.

As for AAAGAAGTTT, the switch fluorescence ratio amounted to 0.983.

For TCTGCTCGCA, the switch fluorescence ratio is 0.993.

For the sequence GATGGTACGG, the switch fluorescence ratio worked out at 0.994.

In the case of ATCCTCTAAT, the switch fluorescence ratio was found to be 1.05.

In the case of GAGAATCTAT, the switch fluorescence ratio was 0.982.

As to AGCGAGGTT, the switch fluorescence ratio is 1.01.

For GCGCCAAAAC, the switch fluorescence ratio came out at 1.18.

For AGGGCATTTT, the switch fluorescence ratio is 1.1.

In the case of AGAATCTAAG, the switch fluorescence ratio came out at 1.02.

With CGCAATTCGT, the switch fluorescence ratio is 5.32.

In the case of AAGAACTTGA, the switch fluorescence ratio came to 1.05.

Take TTAGCGAAAT: the switch fluorescence ratio was found to be 1.07.

In the case of CGGGAAGCGT, the switch fluorescence ratio came to 0.949.
